Source: patent US20240218073A1, “IMMUNOMODULATORY ANTI-CD73 ANTIBODIES AND USES THEREOF” (Corvus Pharmaceuticals, Inc., priority 2019, published 2024)

Key:
B cells = assay: B cell death / ADCC; format: cell-based, human
human B cells [1] = format: cell-based
[2] = Phase 1 trial in cancer patients: serum immunoglobulins; format: in vivo, human; details: pre-treatment vs 9, 18 and 27 weeks
Text: Blood was collected from patients treated with CPI-006 for immunoglobulins analysis at pre-treatment or prior to dose administration at the beginning of Cycle 4 (9 weeks), Cycle 7 (18 weeks) and Cycle 10 (27 weeks).
CPI-006 is being evaluated as an immunotherapy for cancer in an ongoing phase 1 study (NCT03454451). The cancers being evaluated in the study include non-small cell lung cancer, renal cell cancer, colorectal cancer, triple negative breast cancer, cervical cancer, ovarian cancer, pancreatic cancer, endometrial cancer, sarcoma, squamous cell carcinoma of the head and neck, bladder cancer, metastatic castration resistant prostate cancer, and non-Hodgkin lymphoma. […] Memory B cells are essential for both acute and long-term immunity as they have undergone immunoglobulin rearrangement and somatic hypermutation in order to produce high affinity, antigen-specific antibody upon exposure to antigen. […] These new B cell clones were limited to 2-40 clones per patient and appeared with frequencies as high as 1:100 B cells, consistent with a robust clonal expansion following an antigen-specific response (FIG. 15I-15K). The cognate antigens recognized by these new B cell clones are currently under characterization.

T cells [3] = assay: T cell proliferation of anti-CD3/anti-CD28 activated PBMCs in the presence of AMP; format: cell-based, human; details: 500 nM antibody, 13 donors
Description: (§1) FIG. 12A: CD73 catalytic activity was measured with MDA-MB-231 cells or MDA-MB-231 CD73 CRISPR cells in the presence of CPI-006, oleclumab, or 1 mM APCP by adding 250 μM AMP and measuring phosphate levels in the cell culture supernatant. FIG. 12B: Human PBMCs were incubated with AMP in the presence of CPI-006, oleclumab, or isotype control antibody at the saturating concentration of 300 nM. After 4 hours of incubation, the AMP remaining in the supernatant was quantified using the CellTiterGlo assay as described in the Methods. Percentage of inhibition was plotted. Data represent 9 individual donors and error bars represent mean±SD. ****p<0.0001 as determined by t-test. FIG. 12C: Human PBMCs were activated with anti-CD3/anti-CD28 in the presence of AMP and a range of doses of CPI-006, oleclumab, or isotype control antibody. T cell proliferation was assessed by flow cytometry. T cell proliferation for 13 donors treated with 500 nM CPI-006 or oleclumab or 890 nM isotype control. Error bars represent mean±SD. *p<0.05, ***p<0.001, and ****p<0.0001 as determined by t-test. […] After 4 days in culture, IFNg levels in the supernatant were measured by AlphaLISA (Perkin Elmer). […] Error bars represent mean±SD. *p<0.05 and **p<0.01 as determined by t-test. […]

T cells [4] = assay: IFNg production of activated PBMCs in the presence of AMP (AlphaLISA); format: cell-based, human; details: PBMCs + anti-CD3/anti-CD28 + AMP, 4 days, 6 donors
Description: as §1

cellular CD73 = biological target: T1, cellular CD73 (Homo sapiens, UniProt P21589); assay: CD73 catalytic activity on MDA-MB-231 cells (phosphate released from AMP); details: 250 μM AMP, baseline from CRISPR CD73 knockout cells and 1 mM APCP
T1 sequence (P21589 27-549): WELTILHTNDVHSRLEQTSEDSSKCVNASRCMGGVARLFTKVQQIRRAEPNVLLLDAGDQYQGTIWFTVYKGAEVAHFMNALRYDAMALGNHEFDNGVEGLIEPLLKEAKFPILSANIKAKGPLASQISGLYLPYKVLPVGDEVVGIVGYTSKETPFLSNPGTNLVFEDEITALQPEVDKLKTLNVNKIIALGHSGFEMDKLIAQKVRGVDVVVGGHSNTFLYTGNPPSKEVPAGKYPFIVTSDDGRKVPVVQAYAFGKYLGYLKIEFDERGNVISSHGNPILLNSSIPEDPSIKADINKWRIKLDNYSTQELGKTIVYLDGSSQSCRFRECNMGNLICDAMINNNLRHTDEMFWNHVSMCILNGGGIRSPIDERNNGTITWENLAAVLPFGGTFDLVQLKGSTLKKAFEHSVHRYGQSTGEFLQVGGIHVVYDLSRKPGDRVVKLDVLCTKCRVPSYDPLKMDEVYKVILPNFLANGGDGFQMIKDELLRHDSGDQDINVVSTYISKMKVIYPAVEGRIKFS

Naïve B cells = assay: B cell morphology (cytospin, Wright Giemsa staining); format: cell-based, human; details: 48 hours after treatment, 3 donors
Description: FIG. 8 are representative microscopy images of human B cells. Cells were treated with CPI-006 or hIgG1 isotype control (top row). Stimulation of B cells through IgM represents a known method for activating B cells and promoting differentiation. Anti-IgM, along with an appropriate isotype control, were therefore included as a positive control (bottom row). Images were collected 48 hours after treatment after cells were cytospun onto slides and Wright Giemsa staining. Data are representative of 3 independent donors.
(§2) CD73 is expressed on subsets of human hematopoietic cells and had previously been implicated to play a role in lymphocyte activation and adhesion. The inventors performed a flow cytometry-based screen to identify differentially expressed cell surface markers on immune cells following in vitro treatment with CPI-006. […] CPI-006 induced activation was dose-dependent with concentrations of 1 μg/mL achieving near maximal induction of CD69 in vitro (FIG. 13C).

[5] = biological target: T2, CD73 expressed on primary human peripheral blood mononuclear cells (Homo sapiens, UniProt P21589); assay: CD73 enzymatic activity on primary human PBMCs (AMP remaining, CellTiterGlo); details: 300 nM antibody, 4 hours incubation with AMP, 9 donors
T2 sequence (P21589 27-549): T1 sequence (P21589 27-549)

B lymphocytes = assay: B cell activation and maturation markers by flow cytometry in vitro; format: cell-based, human
Description: FIG. 6 are bar graphs showing CPI-006 directly activates B lymphocytes. Purified B cells were incubated overnight with 10 μg/mL human IgG1 isotype control or CPI-006 or anti-IgM microbeads, a positive control for BCR stimulation. Expression of activation markers CD69, CD83, CD86, CD25 or MHC-II was measured by flow cytometry. Mean fluorescence intensity (MFI) was determined for each activation marker and was normalized to the untreated condition for each donor. The figure legend from top to bottom is representative of each group of four bars from left to right. (N=3-5 donors).
FIG. 7 illustrates expression of CD69 on B cells (CD19+CD3−) as measured by flow cytometry and reported by MFI. Human PBMCs were incubated overnight with 10 μg/mL CPI-006 with or without NECA over a range of concentrations or 10 μM APCP. Expression of CD69 on B cells (CD19+CD3−) was measured by flow cytometry and MFI is reported. Error bars represent mean±SD. *p<0.05, **p<0.01 as determined by t-test.
Human B cells were stimulated in vitro with CPI-006 or CPX-016 (1 ug/ml) or an isotype control for 3 days. IgD and CD27 expression were evaluated by flow cytometry. The mean fluorescence intensity (MFI) of each marker was determined in FlowJo and normalized to CPX-016. N=3 donors shown. For each group of two bars, left bar represents treatment with […] and right bar represents treatment with CPX-006.
FIG. 13A: Purified B cells from 3-5 healthy donors were incubated overnight with human IgG1 isotype control or CPI-006 (10 μg/mL) or anti-IgM microbeads, a positive control for BCR stimulation. Expression of activation markers CD69, CD83, CD86, or MHC-II was measured by flow cytometry. FIG. 13B: Time dependent increases in the expression of CD27, IgG, IgM, CD38, and CD138 on purified B cells cultured in the presence of CPI-006 or isotype control (1 μg/mL). Mean fluorescence intensity (MFI) was determined for each marker and was normalized to the untreated or isotype control for each donor. […] Expression of CD69 (MFI) was measured by flow cytometry. FIG. 13D: Purified B cells were incubated overnight with 10 μg/mL human IgG1 isotype control or CPI-006 or equimolar CPI-006 Fab. CD69 and CD73 were measured on B cells by flow cytometry. FIG. 13E: Human PBMCs were incubated overnight with a fixed concentration of CPI-006 (10 μg/mL) along with ibrutinib or vehicle control over a range of concentrations. Expression of CD69 on B cells (CD19^POSCD3^NEG) was measured by flow cytometry.
as §2

[6] = tested on: circulating CD73^POS B cells; assay: Phase 1 trial in cancer patients: peripheral blood immunophenotyping by flow cytometry; format: in vivo, human
B cell clones = assay: Phase 1 trial in cancer patients: B cell receptor repertoire analysis; format: in vivo, human
Description: B cell receptor sequencing of the CDR3 region was performed to identify the frequency of B cell clones in peripheral blood samples collected pre-treatment and on-treatment at 6 weeks. Expansion of B cell clones was observed after 6 weeks in 7 of 11 evaluated patients. Clonal abundance plots are shown for patients treated with 6 mg/kg CPI-006 (left panel), 6 mg/kg CPI-006+ ciforadenant (center panel), and 12 mg/kg CPI-006 (right panel). Ciforadenant is also known as CPI-444.
B cell receptor sequencing of the CDR3 region was performed to identify the frequency of B cell clones in peripheral blood samples collected pre-treatment and on-treatment at 6 weeks. Cancer type, treatment, and dosage for each patient are as indicated above each clonal abundance plot.
CPI-006 is being evaluated as an immunotherapy for cancer in an ongoing phase 1 study (NCT03454451). The cancers being evaluated in the study include non-small cell lung cancer, renal cell cancer, colorectal cancer, triple negative breast cancer, cervical cancer, ovarian cancer, pancreatic cancer, endometrial cancer, sarcoma, squamous cell carcinoma of the head and neck, bladder cancer, metastatic castration resistant prostate cancer, and non-Hodgkin lymphoma. […]

human B cells [7] = tested on: human B cells

With “CPI-006: humanized anti-CD73 IgG1k antibody with 1E9 CDRs (SEQ ID NO:1-6) and N297Q mutation eliminating Fc effector functions” the “B cell death / ADCC” value (B cells) was “does not induce B cell death or initiate ADCC”, the “IgG levels in culture supernatant (class switching)” value (human B cells [1]; 5000 purified human B cells, 0.1 and 1.0 ug/mL, 7 day incubation) was “induces antibody class switching to IgG” and the “increase in IgM levels relative to isotype control” value (human B cells [1]; culture supernatant six days after in vitro treatment) was 3 fold. The “increase in IgG1 levels relative to isotype control” value (human B cells [1]; culture supernatant six days after in vitro treatment, IgGk not measured) was 3 fold, the “circulating Ig levels in serum” value [2] was “No consistent change in circulating Ig levels” and the T cell proliferation (T cells [3]) was “restored T cell proliferation in all donors tested”. For the same substance, the “cytokine (IFNg) production” value (T cells [4]) was “restores T cell proliferation and cytokine production”, the “CD73 activity (free phosphate levels generated upon conversion of AMP to adenosine)” value (cellular CD73) was “inhibited CD73 activity to baseline levels” and the “morphological changes of B cells” value (Naïve B cells) was “morphological changes consistent with differentiation into plasmablasts”. The “enzymatic activity of CD73 on PBMCs” value [5] was “eliminated the enzymatic activity of CD73”, the “B cell subset activated” value (B lymphocytes; CD69 and CD73 measured on B cells) was “restricted to CD73^POS B cells” and the “IgD and CD27 expression (MFI)” value (B lymphocytes; human B cells, 1 ug/ml, 3 days, normalized to CPX-016, 3 donors) was “decreases IgD and increases CD27”. The “concentration achieving near maximal induction of CD69” value (B lymphocytes; in vitro, dose-dependent) was 1 µg/mL, the “cell surface expression of CD27, IgG, CD38, CD138” value (B lymphocytes; purified B cells, 1 μg/mL, time dependent) was “increased cell surface expression of CD27, IgG, CD38, and CD138” and the “expression of CD69, CD83, CD86, MHC-II on B cells” value (B lymphocytes; purified B cells, 10 μg/mL, overnight, positive control anti-IgM) was “upregulation of activation markers (CD69 and CD83) and antigen presentation machinery (CD86 and MHC-II) to similar levels achieved with the positive control”. The “circulating CD73^POS B cells” value ([6]; 1-24 mg/kg, 30 minutes after antibody infusion) was “dramatic decreases in circulating CD73^POS B cells at all CPI-006 dose levels”, the “return of B cells to circulation” value ([6]; 21-day cycle) was “returned to circulation at levels similar to baseline by day 21” and the “patients with increase in HLA-DR expression specific to CD73^+ B cells” value ([6]; single agent or with ciforadenant, Day 7) was 5 of 6. The “memory B cells among returning B cells” value ([6]; ≥3 mg/kg) was “enriched in CD27^POS IgD^NEG class switched memory B cells in the majority of subjects”, the “new B cell clones per patient” value (B cell clones; 21 days after treatment) was 2-40 clones per patient and the “patients with expansion of B cell clones” value (B cell clones; after 6 weeks, CPI-006 alone or with ciforadenant) was 7 of 11. For the same substance, the “induction of IFNg, IL-2, IL-6, IL-10, TNFa” value (human B cells [7]; healthy donor PBMCs (data not shown)) was “did not induce IFNg, IL-2, IL-6, IL-10, or TNFa” and the “production of B cell cytokines CCL3, CCL4, CCL2, CCL22” value (human B cells [7]; purified B cells, 10 μg/mL, 5 days) was “induced production of B cell cytokines such as CCL3, CCL4, CCL2, and CCL22”.
